This is one part of the list.
Each sequence was assayed on PfHDP1 homeodomain (GST-tagged) (assay: gcPBM binding intensity (ln(normalized median fluorescence intensity)); higher = stronger DNA binding).
In short: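 Binding of GST-tagged P. falciparum DNA-binding domains, expressed in E. coli and used at about 25 μg on average, was carried out for 1 h in 1× PBS containing 1% milk, 0.2 mg/ml BSA, 0.5% salmon testes DNA and 0.03% Triton X-100. The target was an Agilent 4 × 180k array of primer-extended double-stranded 36-bp intergenic genomic probes plus negative controls, read with Alexa488 anti-GST antibody at 488 nm. Binding intensity is the highest Masliner-normalised natural-log median intensity across replicate spots of either probe orientation.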

Point of comparison: “TAAATATATTGGAGAGGTACACTTTTGGCATTGAAA [XGTACX_site8447]”, “gcPBM binding intensity (ln)” value 6.56. Against it:
- TTCATTAAAATTATTACACACAGTTCTTCAACCAAA [CACACA_site3504] — lower, 6.36
- TTTTAAACAGGACACACACACATATAGATTTATATA [CACACA_site6560] — higher, 6.98
- AATGATTTTCAATCGAAATGAAACTTAGAAGATATA [CACACA_negctrl_site1475] — lower, 6
- TATTTTTAAACAAAACTGTATTTATTTTTTAAAATT [CACACA_negctrl_site1449] — lower, 5.92
- TTTTGTTATTTTTGTATGCACTACATATTATTATAT — higher, 8.89
- TAGTTTTTTATATATTGTACAAATGATATATTATAT [XGTACX_site1002] — higher, 6.64
- AAACTTTTTTTAAAAACACACATATAGATTTATATA [CACACA_site7842] — lower, 6.48
- GAAATTAAAAAATTTATGCACACTTTAAAAAAAAAA [CACACA_site3769] — higher, 9.28
- ATATATATATATAATTGTACATTTTTATGTTTTATA [XGTACX_site4560] — higher, 8.99
- AAATAAAATAATAAAACATGCAAAAATAATGATTTA [TGCATGCA_site415] — higher, 6.72
- ATAAAGATTAACAAAGTGCATTTATATATATAATCT [GTGCAC_site9407] — higher, 7.59
- CCCAAAAAATATCATAGTACTCAACATGACTACTAT [XGTACX_site7838] — lower, 6.32
- TTTTTGTTAACAATGGGTACAAAAAAAAGGAAAATA [XGTACX_site7466] — the same, 6.56
- AATTTTGTATAGGTATCACACATGAAATATATTATT [CACACA_site5526] — lower, 6.3
- TGAATAATCAATAGTACACACATATAAATATAAATA [CACACA_site7345] — lower, 6.49
- TTTTATTTATTATTATGTACACACTATATTAAAACA [XGTACX_site1265] — higher, 6.64
- ACTTAGGAAATAAAACGTACATTAAATATATACATA [XGTACX_site2990] — lower, 6.25
- GTATGTATGTATGTATGTACTTATTAATCAGTAAAA [XGTACX_site3844] — higher, 7.42
- TATAAATAAATAGATACACACATATTTATAAATACA [CACACA_site6219] — lower, 6.52
- ATAAAAGATATGTATATGTATATGTATATATATATA [TGCATGCA_negctrl_site214] — higher, 8.93
- GCTTAAGGTAAATATAAAATATAGTGTATACTTTAG [XGTACX_negctrl_site585] — lower, 6.25
- TTACGCTGCTATATAGTGCACATAATATATGACCTG — higher, 9.85
- TTTATAATTCTTACAACACACAATGTACTTTTATAT [CACACA_site8340] — lower, 6.53
- TTTATTTCCTTTTTGTGTACATATATATGTAATTCA [XGTACX_site1718] — higher, 7.07
- TTAAGGCATCAACATAGTACAATTTTTCTATAATAA [XGTACX_site1114] — lower, 6.05
- ATTTAATACAAATACACACACAAATAAATACAGATA [CACACA_site5956] — higher, 6.87
- GTGATGGTACAATATACACACTTAAAAAAAAAAAAT [CACACA_site5360] — lower, 6.53
- ATTCTACGCACGCGCACACACAACAAAAAAAAAAAA [CACACA_site3538] — higher, 8.22
- TATATACATATATATTGTACTTATTTTTATAATGTC [XGTACX_site3453] — lower, 6.21
- CATGTGTGATAATGATGTACTATATTAAGCTAGTCC [XGTACX_site2690] — lower, 6.28
- TTATTTTTTTATTCATGTACACAAGAACATTTCATT [XGTACX_site5744] — lower, 6.55
- TACAAATATGGACACACACACATATATATATATATA [CACACA_site4488] — higher, 9.27
- GTATAATAGAAACACACACACACACCCAAAAAAAAA [CACACA_site2010] — higher, 6.87
- GTATATATAATGTGCCGTACATTTATATATTCAATA [XGTACX_site1051] — lower, 6.25
- AAGTATGTATCACAAAGTACTTAAGCATATATTTAA [XGTACX_site4121] — higher, 6.57
- TTGTAATAAATAAAAGTGCATATATGGTTCCACTAT [GTGCAC_site9944] — higher, 7.81
- TTAAATGTAATATAATGTACGGATATTTACCATAAA [XGTACX_site1472] — lower, 6.22
- AAATGTAATAATAAATGTACAAACATATATATGTAT [XGTACX_site8718] — higher, 6.59
- TATATATACTTTTATGTACACACCTATAATATGGGT [CACACA_site1759] — higher, 6.73
- AAGTTTAAAATCTTTGCACACATATAAATAAATATA [CACACA_site2554] — higher, 10.2
- TGCACCCACCAACACACACACAACTAAAAAATAATG [CACACA_site2566] — higher, 6.95
- ATAAATAAATAAAAAAGTACATTTCCACTTTTAACA [XGTACX_site81] — lower, 5.98
- CAATATATTATATGGGTGCAAACCACATATAAATAA — higher, 8.55
- TTAGGTATATATAAACGTACTCACAATATCATATAA [XGTACX_site8743] — lower, 6.54
- TATTATATCTTTTCAAGTACACATAACATACTTATT [XGTACX_site1081] — higher, 6.75
- TATAATTATATAAATTGTACATAAAAAGTTTTTACT [XGTACX_site3621] — lower, 6.32
- ACATATTAAATATGAGTGCAATATATATATATATAA — higher, 9.25
- ATTAAATTTCCTTGAGTGCACATTTTGTTAAAATAT — higher, 9.29
- ATAACATATTTCTTTTGTACTCAAAATAAAATTAAT [XGTACX_site2479] — lower, 6.2
- AAATATATTTTATTTTGTACTTATGTATAAAATATA [XGTACX_site914] — lower, 6.18
- AATTTTGTTGAGCACACACACATACATACATACATA [CACACA_site3154] — higher, 7.64
- TACAATGAAAAAATAACATGCAATTATATTTCTCTT [TGCATGCA_site833] — lower, 6.13
- TTTAAATATTTTAATACACACACGATATGTACAAAA [CACACA_site4455] — higher, 6.73
- ACGTGATAAATAAATACATGCATAGAAAGATGCATA [TGCATGCA_site91] — lower, 6.21
- TATATATATATATATTGTACTAGTGCATATATATAC [XGTACX_site7926] — higher, 10.3
- ACCAAAAAAAAAAAAAAAAAAATATACATATATATA [GTGCAC_negctrl_site582] — higher, 6.66
- ATTTTATTTTCTCACACACACATATATATATATATA [CACACA_site5781] — higher, 9.25
- ACATATGTTAAAAAGGCATGCATTCTTTTTATTTTA [TGCATGCA_site1043] — lower, 6.27
- TTTTTTTTGGTATAATGTACATTTTCACTTATGTAT [XGTACX_site3259] — higher, 6.97
- TGGTATTGAATTTTTTGTACACATAAAATATATATA [XGTACX_site7614] — lower, 6.45
- TATTTTAATTTTTTTTTGTTTTTTCTAATACATGTA [CACACA_negctrl_site1399] — lower, 6.05
- GTGCCATTTAAAAAATGTACAAGAAAATGTTCATCA [XGTACX_site2865] — lower, 6.13
- GAAGAAAAAAAATATACACACATACGATCATACATA [CACACA_site5227] — higher, 6.75
- TCCTTTATTTTTAAAGTGCATATACATGTACATTAT [GTGCAC_site9445] — higher, 7.62
- GCAACACAAAAAATTACACACAAAAAAAATATATTA [CACACA_site916] — lower, 6.49
- CAGCTCTTAAGAATTACACACATATACACATATATA [CACACA_site7524] — higher, 6.7
- ATACATAAATACAAACGTACATACATACATACATAC [XGTACX_site7824] — higher, 7.97
- TATACCTATAAATACACACACATATAAATAAATATA [CACACA_site6153] — higher, 6.85
- TTATACAAATTCATGGGTACAAACAAACATATATCA [XGTACX_site6237] — higher, 6.83
- AAAATATATACTCCATCACACACCAAAAAGAAAAAA [CACACA_site2542] — lower, 6.53
- AAAAAAAAAAAAAAATGTACATATGGTATGCATATA [XGTACX_site3225] — higher, 6.61
- GCTTATAAAGGCAGAAGTACTGTATTCCTATATATA [XGTACX_site8865] — lower, 6.13
- AATAATAAAAAATATACACACATATATATATATATA [CACACA_site25] — higher, 9.26
- TTGGCATACGGACACACACACACACCCAGACATATA [CACACA_site4492] — higher, 6.57
- TTTTAATGTACCAGTGTGCACCTTGCGTACATATTA [GTGCAC_site9957] — higher, 9.36
- AATAATATATATATAATACACACTATTATAATCACA [CACACA_site1310] — higher, 6.76
- ATTCAAAAGATGTATACACACATGTGTATAATATAA [CACACA_site7197] — higher, 7.94
- TAATTTCCTTAAGAATGTACTTACATTTTATTATTT [XGTACX_site5998] — lower, 6.02
- TAATATGAAATGTGTACACACGCACCCACAAAAAAA [CACACA_site8949] — higher, 7.62
- GTTTATGTATTATTATGTACGTATCATAATATATAT [XGTACX_site2385] — higher, 6.87
- ATGGACAAGTTAAACGCACACAAATATATACAGACA [CACACA_site1652] — higher, 7.33
- ACAAAATAATTGTTTACACACCCATTTGTAATTTTA [CACACA_site3615] — lower, 6.42
- TCTGTAAACATATTCACACACATAAATTCGCATATA [CACACA_site1866] — higher, 6.58
- TGTATGAAAATAAATGCATGCCAAATATATATATAT [TGCATGCA_site132] — higher, 8.72
- AAAATGAAATATGTTATATATATATATATATATATA [CACACA_negctrl_site1752] — higher, 9.4
- TATCATTGTTCATGCTTGCACTTTTGTTACTGTTCC [GTGCAC_site9425] — higher, 6.75
- GAAAATTTATATTGCACACATAGGGAATAAAAAAAA [CACACA_site2146] — higher, 10.3
- AAAAAGAGGAAAAAGATAAAGAAATTAAAGGAGAGA [CACACA_negctrl_site423] — lower, 6.5
- TTTAATCATTTTATTTGTACTCATAAAAAATATAAT [XGTACX_site5537] — lower, 6.37
